From the supplement of paper PMC4967469
A lower IC50 marks a more sensitive line; where the fit passes the top or lowest dose, that dose stands as a limit. AUC sums up the same curve from the lowest dose to the 256-fold higher top dose; the more sensitive the line, the further below 1. A top dose marked as inferred was calculated from the reported fits.

Compound: Cn1cc(C2=C(c3cn(C4CCN(Cc5ccccn5)CC4)c4ccccc34)C(=O)NC2=O)c2ccccc21 [LY317615]
Assay: Viability of human cancer cell lines after 72 h of drug (GDSC screen)
Conditions: top dose inferred
Experimental: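 Human cancer cell lines in 384-well plates, medium with 10% serum, drug for 72 h over a 256-fold dose range (nine 2-fold or five 4-fold steps up to the top dose). Adherent lines were fixed and stained with the nucleic acid dye Syto60, suspension lines read with resazurin; signal relative to control wells, capped at 0 and 100%. One two-parameter sigmoid per drug and line, fitted in a mixed model over all curves with the slope shared within a line.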

Row | Cell Line | AUC | IC50 [µM]
1 | HCC38 (breast, adherent, top dose 20 µM) | 0.891 | > 20
2 | Mo-T (hairy cell leukaemia, suspension, top dose 20 µM) | 0.805 | 10.3
3 | DND-41 (T-cell leukaemia, suspension, top dose 20 µM) | 0.576 | 1.96
4 | JHOS-3 (ovary, adherent, top dose 20 µM) | 0.753 | 8.38
5 | SAS (head and neck, adherent, top dose 20 µM) | 0.894 | > 20
6 | MC-CAR (haematopoietic neoplasm, suspension, top dose 20 µM) | 0.655 | 3.18
7 | NCI-H650 (lung adenocarcinoma, adherent, top dose 20 µM) | 0.879 | > 20
8 | Saos-2 (osteosarcoma, adherent, top dose 20 µM) | 0.981 | > 20
9 | KMOE-2 (acute myeloid leukaemia, suspension, top dose 20 µM) | 0.661 | 3.31
10 | CAS-1 (glioma, adherent, top dose 20 µM) | 0.951 | > 20
11 | OC-314 (ovary, adherent, top dose 20 µM) | 0.936 | > 20
12 | H3118 (head and neck, adherent, top dose 20 µM) | 0.735 | 6.31
13 | ES1 (Ewing sarcoma, adherent, top dose 20 µM) | 0.866 | 17.3
14 | SK-UT-1 (soft tissue, adherent, top dose 20 µM) | 0.987 | > 20
15 | PC-3 [JPC-3] (lung adenocarcinoma, adherent, top dose 20 µM) | 0.828 | 18.3
16 | SW1116 (large intestine, adherent, top dose 20 µM) | 0.986 | > 20
17 | MHH-NB-11 (neuroblastoma, adherent, top dose 20 µM) | 0.92 | > 20
18 | T84 (large intestine, adherent, top dose 20 µM) | 0.87 | 19.1
19 | T47D (breast, adherent, top dose 20 µM) | 0.951 | > 20
20 | NCI-H1155 (large cell lung carcinoma, suspension, top dose 20 µM) | 0.928 | > 20
21 | NCI-H2087 (lung adenocarcinoma, semi-adherent, top dose 20 µM) | 0.366 | 0.517

Row | Cell Line | AUC | IC50 [µM]
22 | OCUB-M (breast, adherent, top dose 20 µM) | 0.893 | 18.1
23 | TE-10 (oesophagus, adherent, top dose 20 µM) | 0.869 | 17.8
24 | SH-4 (melanoma, adherent, top dose 20 µM) | 0.757 | 10.8
25 | TC-71 (Ewing sarcoma, adherent, top dose 20 µM) | 0.907 | 19.3
26 | NB10 (neuroblastoma, adherent, top dose 20 µM) | 0.838 | 13.1
27 | NCI-H2452 (mesothelioma, adherent, top dose 20 µM) | 0.984 | > 20
28 | Mewo (melanoma, adherent, top dose 20 µM) | 0.979 | > 20
29 | NCI-H1993 (lung adenocarcinoma, adherent, top dose 20 µM) | 0.872 | > 20
30 | OVTOKO (ovary, adherent, top dose 20 µM) | 0.774 | 10.1
31 | AMO-1 (haematopoietic neoplasm, suspension, top dose 20 µM) | 0.827 | 9.93
32 | JIMT-1 (breast, adherent, top dose 20 µM) | 0.893 | > 20
33 | UMC-11 (lung carcinoid, adherent, top dose 20 µM) | 0.896 | > 20
34 | ES4 (Ewing sarcoma, adherent, top dose 20 µM) | 0.966 | > 20
35 | LC-1-sq (lung squamous cell carcinoma, adherent, top dose 20 µM) | 0.941 | > 20
36 | RCC10RGB (kidney, adherent, top dose 10.24 µM) | 0.972 | > 10.2
37 | SW962 (urogenital system, adherent, top dose 20 µM) | 0.929 | > 20
38 | HCC1395 (breast, adherent, top dose 20 µM) | 0.877 | > 20
39 | LOU-NH91 (lung squamous cell carcinoma, adherent, top dose 20 µM) | 0.924 | > 20
40 | TE-11 (oesophagus, adherent, top dose 20 µM) | 0.951 | > 20
41 | JiyoyeP-2003 (Burkitt lymphoma, suspension, top dose 20 µM) | 0.882 | 16.8
